{
  "source": "PubChem BioAssay AID504333",
  "about": "(National Center for Advancing Translational Sciences (NCATS), 2011)",
  "note": "Several values for one entry are separate records, joined by “and”; a condition that tells them apart may be missing. Equal values may be shown once. About 16,000 (4.4%) of roughly 360,000 compounds were called active. Inconclusive means that the source gave no clear call. Such entries were picked first, then a sample of the others. Calls follow the shape of the dose curve; as a rule, active = well fitted inhibition curve with a large enough effect; inconclusive = small, poorly fitted or top-dose-only effect; inactive = no such curve, though single readings can be large or run the other way. A potency beside an inconclusive call is a rough fit, not a confirmed value. Potency is read from the fitted curve at half-maximal effect; tags tell the direction and shape of the fitted curve.",
  "data": [
    {"target": "Bromodomain adjacent to zinc finger domain protein 2B (Homo sapiens) (UniProt Q9UIF8)", "sequence (Q9UIF8 whole entry, looked up, the tested form may be a part)": "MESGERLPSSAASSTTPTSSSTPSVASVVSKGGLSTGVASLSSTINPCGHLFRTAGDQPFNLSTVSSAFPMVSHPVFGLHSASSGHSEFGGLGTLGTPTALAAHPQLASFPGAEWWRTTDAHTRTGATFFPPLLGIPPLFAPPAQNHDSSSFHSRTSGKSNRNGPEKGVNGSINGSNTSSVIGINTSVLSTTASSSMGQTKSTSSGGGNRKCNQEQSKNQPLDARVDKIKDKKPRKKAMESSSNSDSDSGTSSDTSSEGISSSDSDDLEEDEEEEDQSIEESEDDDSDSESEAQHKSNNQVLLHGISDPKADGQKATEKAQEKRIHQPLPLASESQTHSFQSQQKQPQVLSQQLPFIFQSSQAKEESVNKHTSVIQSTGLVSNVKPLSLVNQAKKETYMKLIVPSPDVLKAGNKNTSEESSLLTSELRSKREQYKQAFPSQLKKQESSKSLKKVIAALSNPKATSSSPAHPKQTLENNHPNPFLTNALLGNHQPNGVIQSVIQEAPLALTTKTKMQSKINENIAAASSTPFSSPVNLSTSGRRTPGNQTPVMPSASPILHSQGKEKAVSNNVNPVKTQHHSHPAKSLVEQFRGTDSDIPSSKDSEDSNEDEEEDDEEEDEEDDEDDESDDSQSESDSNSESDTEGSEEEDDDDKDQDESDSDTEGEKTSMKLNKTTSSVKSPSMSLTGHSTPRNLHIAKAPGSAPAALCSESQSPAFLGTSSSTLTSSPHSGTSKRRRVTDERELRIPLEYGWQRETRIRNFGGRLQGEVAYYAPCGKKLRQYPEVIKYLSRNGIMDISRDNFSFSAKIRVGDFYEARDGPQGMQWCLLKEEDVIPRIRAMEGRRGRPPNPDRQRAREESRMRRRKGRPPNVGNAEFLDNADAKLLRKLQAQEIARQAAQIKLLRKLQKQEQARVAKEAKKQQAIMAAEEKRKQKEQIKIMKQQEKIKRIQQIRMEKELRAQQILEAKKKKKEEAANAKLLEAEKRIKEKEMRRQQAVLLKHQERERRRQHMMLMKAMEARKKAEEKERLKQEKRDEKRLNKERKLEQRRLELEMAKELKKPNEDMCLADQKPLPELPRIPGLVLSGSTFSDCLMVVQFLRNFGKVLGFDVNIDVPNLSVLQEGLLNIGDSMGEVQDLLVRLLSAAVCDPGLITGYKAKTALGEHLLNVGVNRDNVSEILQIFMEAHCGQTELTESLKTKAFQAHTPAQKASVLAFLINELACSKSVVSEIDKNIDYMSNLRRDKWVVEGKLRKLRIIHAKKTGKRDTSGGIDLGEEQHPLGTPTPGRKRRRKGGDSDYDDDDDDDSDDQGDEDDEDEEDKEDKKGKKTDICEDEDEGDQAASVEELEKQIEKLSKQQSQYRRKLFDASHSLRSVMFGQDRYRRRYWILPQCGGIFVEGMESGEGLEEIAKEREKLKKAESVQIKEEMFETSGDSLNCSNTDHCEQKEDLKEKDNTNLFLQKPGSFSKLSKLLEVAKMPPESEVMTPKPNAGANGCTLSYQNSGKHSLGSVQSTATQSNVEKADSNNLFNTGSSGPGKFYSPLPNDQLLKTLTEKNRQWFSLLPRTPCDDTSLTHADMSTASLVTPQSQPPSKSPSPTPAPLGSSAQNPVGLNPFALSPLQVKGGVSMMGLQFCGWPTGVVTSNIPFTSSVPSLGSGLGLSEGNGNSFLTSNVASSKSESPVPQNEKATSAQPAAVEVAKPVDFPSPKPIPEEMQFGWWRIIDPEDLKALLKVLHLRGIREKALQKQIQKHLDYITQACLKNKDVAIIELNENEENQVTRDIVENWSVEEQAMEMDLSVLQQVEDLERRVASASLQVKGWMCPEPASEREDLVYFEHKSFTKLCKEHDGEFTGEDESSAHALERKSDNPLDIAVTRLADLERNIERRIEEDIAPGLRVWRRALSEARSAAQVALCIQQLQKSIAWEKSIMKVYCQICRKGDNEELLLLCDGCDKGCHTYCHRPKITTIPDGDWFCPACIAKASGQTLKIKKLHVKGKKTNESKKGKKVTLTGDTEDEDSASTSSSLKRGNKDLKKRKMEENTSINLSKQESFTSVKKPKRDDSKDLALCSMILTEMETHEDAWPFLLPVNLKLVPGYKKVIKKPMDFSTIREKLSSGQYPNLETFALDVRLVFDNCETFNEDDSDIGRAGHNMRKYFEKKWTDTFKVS", "experiment": "qHTS Assay for Inhibitors of BAZ2B; also: nearly all actives have a fitted effect of over 60% in size", "conditions": "AlphaScreen BAZ2B-H3K14Ac peptide displacement; series mostly up to 114 µM", "method_in_brief": "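Compounds, titrated to a top concentration of 110 uM, were incubated 30 min at room temperature with preformed BAZ2B/acetyl-K14 H3 peptide complex (50 nM each). Proximity signal was measured by AlphaScreen after 20 min with beads.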", "values": [
      {"compound": "CCOC(=O)N1CCN(S(=O)(=O)c2ccc(C(=O)Nc3sc4c(c3C#N)CC(C)(C)NC4(C)C)cc2)CC1", "Potency": "inconclusive: 89.1 µM [inhibitor, single point]"},
      {"compound": "CCCS(=O)(=O)c1c(S(=O)(=O)CCC)c2c(N)cccn2c1C(=O)c1ccccc1", "Potency": "inconclusive: 44.7 µM [inhibitor, partial curve]"},
      {"compound": "N#CC1=C2SCN(c3ccccc3)CN2C(=O)CC1c1cccs1", "note": "(stereo not given)", "Potency": "inconclusive: 89.1 µM [inhibitor, single point]"},
      {"compound": "N#Cc1ccc(OCc2cccc(S(=O)(=O)N3CCOCC3)c2)cc1", "Potency": "inactive"},
      {"compound": "CN(C)c1ccc(C(=O)c2ccc(O)cc2O)cc1", "Potency": "inconclusive: 89.1 µM [inhibitor, single point]"},
      {"compound": "O=C(NCCCn1ccnc1)c1nc(Cn2cc(Br)cn2)no1", "Potency": "inconclusive: 79.4 µM [inhibitor, single point]"},
      {"compound": "O=C(COC(=O)/C=C/c1ccc(Br)o1)NC1CCCCC1", "Potency": "inconclusive: 89.1 µM [inhibitor, single point]"},
      {"compound": "COc1cc(/C=C(/C#N)C(=O)NCCCc2ccccc2)ccc1OCC(=O)O", "Potency": "inconclusive: 89.1 µM [inhibitor, single point]"},
      {"compound": "O=C(O)c1nc2ccccc2nc1C(=O)O", "Potency": "active: 79.4 µM"},
      {"compound": "CCCN(CC(=O)Nc1ccccc1C)C(=O)/C=C/c1cccs1", "Potency": "inactive"},
      {"compound": "CC(=O)CC(=O)Nc1ncccn1", "Potency": "inconclusive: 44.7 µM [inhibitor, partial curve, poor fit]"},
      {"compound": "COc1ccccc1/C=C/C=N/N1CCN(c2ccccn2)CC1", "Potency": "active: 50.1 µM"},
      {"compound": "S=C(NCCCN1CCOCC1)Nc1ccc(Nc2ccccc2)cc1", "Potency": "inconclusive: 50.1 µM [inhibitor, partial curve]"},
      {"compound": "O=C(N/N=C/c1cc([N+](=O)[O-])ccc1O)c1ccncc1", "Potency": "active: 10 µM"},
      {"compound": "CC(=O)N1CCN(c2ccc(NCc3cccs3)cc2)CC1", "Potency": "inconclusive: 89.1 µM [inhibitor, single point]"},
      {"compound": "COc1ccc(-c2csc(NC(=O)c3ccccc3S(C)(=O)=O)n2)cc1", "Potency": "inconclusive: 44.7 µM [inhibitor, partial curve]"},
      {"compound": "Cc1ccc(C(=O)OCC(=O)NCc2ccco2)cc1C", "Potency": "inactive"},
      {"compound": "CCc1nnc2c(NCCc3ccc(OC)c(OC)c3)nc3ccccc3n12", "Potency": "inconclusive: 89.1 µM [inhibitor, single point]"},
      {"compound": "COc1ccc(OC)c(NC(=O)Cn2c(CCC(=O)O)ccc2-c2ccc(C)cc2)c1", "Potency": "inconclusive: 56.2 µM [inhibitor, partial curve, poor fit]"},
      {"compound": "CCOc1cccc(CNc2ccc(O)cc2)c1OCc1ccccc1Cl", "Potency": "inconclusive: 39.8 µM [inhibitor, partial curve] and inconclusive: 28.2 µM [inhibitor, single point]"},
      {"compound": "CN1CCN(c2ccc([N+](=O)[O-])cc2/C=N/NC(=O)c2ccc(F)cc2)CC1", "Potency": "inactive"},
      {"compound": "COc1ccc(CNC(=O)c2ccc3[nH]c(C)c(C)c3c2)c(OC)c1", "Potency": "inconclusive: 50.1 µM [inhibitor, partial curve]"},
      {"compound": "CCOc1ccc(CCNC(=O)c2c(C)oc3ncnc(N4CCOCC4)c23)cc1", "Potency": "inactive"},
      {"compound": "COc1ccc(CCNCC(=O)Nc2ccc(C)c(S(=O)(=O)N(C)C)c2)cc1", "Potency": "active: 50.1 µM"},
      {"compound": "Cc1ccc(C)c(OC(=O)c2cccc(S(=O)(=O)N3CCN(C)CC3)c2)c1", "Potency": "inconclusive: 70.8 µM [inhibitor, single point]"},
      {"compound": "CN1C(=O)NC(c2cccc([N+](=O)[O-])c2)C2=C1CCCC2=O", "note": "(stereo not given)", "Potency": "inactive"},
      {"compound": "CC(=O)c1ccc(S(=O)(=O)N2CCn3cccc3C2c2ccccc2F)cc1", "note": "(stereo not given)", "Potency": "inconclusive: 79.4 µM [inhibitor, partial curve]"},
      {"compound": "O=c1c2ccccc2c(C=NCCCN2CCOCC2)c(O)n1Cc1ccccc1", "Potency": "inconclusive: 79.4 µM [inhibitor, single point]"},
      {"compound": "CCN(CC)CCCNC(=O)c1cc(-c2ccccc2)c(N2CCCCC2)s1", "Potency": "inconclusive: 79.4 µM [inhibitor, partial curve]"},
      {"compound": "Cc1cc(C)c(OCCCCN(C)Cc2ccccc2)c(C)c1", "Potency": "inconclusive: 89.1 µM [inhibitor, single point]"},
      {"compound": "NC(=S)NN=C(Cc1ccccc1)Cc1ccccc1", "Potency": "inconclusive: 31.6 µM [inhibitor, full curve]"},
      {"compound": "C#CCOCCOCCOCCNc1nc(N2CCN(C(=O)CCCCCCCCCCNC(=O)[C@@H](CCC(=O)O)n3cc(CCCCCN)nn3)CC2)nc(N2CCN(C(=O)CCCCCCCCCCNC(=O)[C@H](CO)n3cc(CCCCCN)nn3)CC2)n1", "Potency": "inactive"},
      {"compound": "O=C(/C=C1\\NC2(CCCC2)Cc2ccccc21)C(=O)N/N=C/c1ccc(O)c(O)c1", "Potency": "active: 39.8 µM"},
      {"compound": "CC(=O)Nc1cccc(NC(=O)COc2ccc3c(c2)OCO3)c1", "Potency": "inconclusive: 79.4 µM [inhibitor, single point]"},
      {"compound": "Cn1cccc1C1C(C#N)=C(N)OC2=C1C(=O)CCC2", "note": "(stereo not given)", "Potency": "inconclusive: 79.4 µM [inhibitor, single point]"},
      {"compound": "O=C(NCCc1ccccc1)c1nc2c(nnn2Cc2ccccc2Cl)c(=O)[nH]1", "Potency": "inactive"},
      {"compound": "COc1ccc(CNC(=O)c2cc3c(=O)n(Cc4cccnc4)ccc3nc2C)cc1", "Potency": "inactive"},
      {"compound": "OCCNCCSc1nc(C2CCCCC2)n(-c2ccccc2Cl)n1", "Potency": "inconclusive: 79.4 µM [inhibitor, single point]"},
      {"compound": "COc1ccc(C2CC(c3ccc(Cl)cc3Cl)Nc3nc(N)nn32)cc1", "note": "(stereo not given)", "Potency": "inconclusive: 50.1 µM [inhibitor, partial curve]"},
      {"compound": "Cc1cc(NC(=O)c2ccccc2)n(-c2nc3ccccc3[nH]2)n1", "Potency": "inconclusive: 89.1 µM [inhibitor, single point]"},
      {"compound": "COC(=O)CSC1=C(C#N)C(c2cccc(OC)c2)CC(=O)N1", "note": "(stereo not given)", "Potency": "inactive"},
      {"compound": "CC(C)(C)OC(=O)N/N=C\\C=C\\c1ccc2c(c1)OCO2", "Potency": "inactive"},
      {"compound": "Cc1ccc(CN(Cc2ccco2)C(=S)NCC(=O)NCc2cccnc2)cc1", "Potency": "inconclusive: 79.4 µM [inhibitor, single point]"},
      {"compound": "Cc1onc(-c2c(Cl)cccc2Cl)c1C(=O)NNc1ccccc1", "Potency": "inconclusive: 70.8 µM [inhibitor, single point]"},
      {"compound": "COc1ccc(C2=C(C)C(N3CCC(C(=O)Nc4ccccc4F)CC3)=NS2(=O)=O)cc1", "Potency": "inconclusive: 89.1 µM [inhibitor, single point]"},
      {"compound": "Brc1ccc2[nH]c3c(c2c1)CCC3", "Potency": "active: 50.1 µM"},
      {"compound": "COc1cc(C(CCN2CCCC(C)C2)c2c(OC)cc(OC)c3c2OC(=O)CC3c2ccc(N(C)C)cc2)cc(OC)c1OC", "note": "(stereo not given)", "Potency": "active: 14.1 µM"},
      {"compound": "Cc1cccc(NC(=O)CSc2ncc(-c3ccccc3)[nH]2)c1C", "Potency": "inconclusive: 44.7 µM [inhibitor, partial curve]"},
      {"compound": "O=C(c1ccccc1F)N1c2ncnn2C2(CCCCC2)[C@@H]2CCCC[C@@H]21", "Potency": "inconclusive: 89.1 µM [inhibitor, single point]"},
      {"compound": "Cc1ccc2ccc3ccc(C)nc3c2n1", "Potency": "inactive"},
      {"compound": "COc1c(F)c(F)cc2c(=O)c(C(=O)O)cn(C3CC3)c12", "Potency": "inconclusive: 89.1 µM [inhibitor, single point]"},
      {"compound": "Cc1nc2ncnn2c(N2CCN(C(=O)Cc3cccs3)CC2)c1C", "Potency": "active: 50.1 µM"},
      {"compound": "Cc1ccc(C(=O)NCCSc2ccc(Cl)cc2)cc1[N+](=O)[O-]", "Potency": "inconclusive: 25.1 µM [inhibitor, full curve]"},
      {"compound": "COc1ccc(C(CC(=O)O)N2Cc3ccccc3C2=O)cc1OC", "note": "(stereo not given)", "Potency": "inactive"},
      {"compound": "Clc1ccccc1-c1ccc2ncnc(NCc3cccnc3)c2c1", "Potency": "inconclusive: 89.1 µM [inhibitor, single point]"},
      {"compound": "Cc1nc(N2CCC(C)CC2)c2c(C)c(C(=O)O)sc2n1", "Potency": "inactive"},
      {"compound": "COc1ccc(Nc2nc(N)nc(CN3CCN(c4ccc(F)cc4)CC3)n2)cc1", "Potency": "inconclusive: 50.1 µM [inhibitor, partial curve]"},
      {"compound": "O=C1C=C(Nc2ccccc2)c2ccccc2C1=O", "Potency": "inconclusive: 44.7 µM [inhibitor, partial curve]"},
      {"compound": "COc1cc(CCC(=O)N2CCN(c3ccccc3)CC2)cc(OC)c1OC", "Potency": "inactive"},
      {"compound": "COc1cccc(/C=N/Nc2ccc(Cl)nn2)c1", "Potency": "inactive"},
      {"compound": "Cc1cc(=O)oc2cc(OCc3ccc(C(=O)OCC(=O)NC4CCS(=O)(=O)C4)cc3)ccc12", "note": "(stereo not given)", "Potency": "inconclusive: 89.1 µM [inhibitor, single point]"},
      {"compound": "CCOc1ccc2[nH]c(=O)c(C(c3nnnn3Cc3ccco3)N3CCCC(C)C3)cc2c1", "note": "(stereo not given)", "Potency": "inconclusive: 89.1 µM [inhibitor, single point]"},
      {"compound": "COc1ccc2c(c1)C=C(CN1CCN(Cc3ccccc3C)C(CCO)C1)CO2", "note": "(stereo not given)", "Potency": "inconclusive: 44.7 µM [inhibitor, partial curve]"},
      {"compound": "COc1cc(/C=C2\\NC(=S)NC2=O)ccc1OCc1cccc(C(=O)O)c1", "Potency": "inconclusive: 89.1 µM [inhibitor, single point]"},
      {"compound": "O=S(=O)(NC1CCCCC1N1CCN(c2ccc(F)cc2)CC1)c1ccccc1", "note": "(stereo not given)", "Potency": "inconclusive: 70.8 µM [inhibitor, partial curve]"},
      {"compound": "CCn1c(-c2cc(-c3cc(C)ccc3C)nc3ccccc23)n[nH]c1=S", "Potency": "inconclusive: 63.1 µM [inhibitor, partial curve, poor fit]"},
      {"compound": "Cc1cc(C(=O)O)ccc1-c1ccc(CO)o1", "Potency": "inactive"},
      {"compound": "COc1ccccc1-c1nnc(NC(=O)c2ccc(S(=O)(=O)N(C)C)cc2)o1", "Potency": "inconclusive: 89.1 µM [inhibitor, single point]"},
      {"compound": "Nc1ccc2nc(CCCO)[nH]c2c1", "Potency": "active: 50.1 µM"},
      {"compound": "O=C(Cc1ccc(F)cc1)N/N=C/c1ccc(-c2ccc(Cl)c(C(=O)O)c2)o1", "Potency": "inactive"}
    ]}
  ]
}
